The campaign covered roughly 370,000 compounds. About 150 (0.041%) were called active. Inconclusive results, whose numbers are uncertain, are shown with a selection of clear calls. Calls come from the whole dose curve; as a rule, active = well fitted inhibition curve with a large enough effect; inconclusive = small, poorly fitted or top-dose-only effect; inactive = flat fitted curve, though single readings scatter. No potency is given beside an inconclusive call; the fits are too rough.
molecular target: Beta-lactamase (Escherichia coli (strain K12)) (UniProt P00811); test: qHTS Inhibitors of AmpC Beta-Lactamase (assay with detergent); conditions: AmpC hydrolysis of nitrocefin, absorbance 480 nm, 0.01% Triton; activity change, negative = inhibition: at 114 µM (top of the series); note: nearly all actives have a fitted effect of over 25% in size;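 for activity change, negative = inhibition: 0% = no-compound wells and -100% = no-enzyme wells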
Sequence of UniProt P00811 (P00811 whole entry, looked up): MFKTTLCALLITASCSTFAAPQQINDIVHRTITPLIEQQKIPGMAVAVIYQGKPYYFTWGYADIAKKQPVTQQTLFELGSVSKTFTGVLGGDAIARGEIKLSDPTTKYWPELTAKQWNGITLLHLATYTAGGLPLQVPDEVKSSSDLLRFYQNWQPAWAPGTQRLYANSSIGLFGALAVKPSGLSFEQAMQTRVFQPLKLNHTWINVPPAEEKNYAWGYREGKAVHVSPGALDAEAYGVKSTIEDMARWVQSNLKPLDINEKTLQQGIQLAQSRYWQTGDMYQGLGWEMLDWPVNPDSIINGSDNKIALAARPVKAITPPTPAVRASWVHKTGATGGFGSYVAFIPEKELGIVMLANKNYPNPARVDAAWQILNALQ
Summary of the method: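 AmpC (5.3 nM in the dispensed reagent) in 20 mM phosphate pH 7.0 with 0.01% (detergent screen) or 0.0001% Triton X-100 was preincubated with compounds for 15 min at room temperature. Nitrocefin was then added from an 800 uM solution, and hydrolysis was followed at 480 nm.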
Potency is the fitted concentration of half-maximal effect; tags give direction and shape of the fitted curve.

Compound | activity change, negative = inhibition | Potency
CS(=O)(=O)c1ccc(N2CCN(S(=O)(=O)c3cccs3)CC2)c([N+](=O)[O-])c1 | inactive: 4.83% | 
Cc1nc2scc(-c3ccccc3)c2c(=O)o1 | inactive: 1.02% | 
O=C(NCc1cccnc1)c1cccc(S(=O)(=O)NCc2ccccc2)c1 |  | inconclusive [inhibitor, full curve, poor fit]
COc1ccccc1-c1noc2ncnc(Nc3cccc(C)c3C)c12 |  | inconclusive [inhibitor, full curve, poor fit]
CCOc1ccc(S(=O)(=O)NCc2ccc3c(c2)OCO3)cc1C(=O)O |  | inconclusive [inhibitor, partial curve, poor fit]
CC(=O)c1ccc(-c2ccccc2)cc1 |  | inconclusive [inhibitor, partial curve]
CCc1ccc(NCc2cc3ccc(OC)cc3n(CC(=O)Nc3ccc(C(C)C)cc3)c2=O)cc1 | inactive: 2.23% | 
O=c1ccccn1Cc1c(Cl)cccc1Cl |  | inconclusive [inhibitor, partial curve]
Nc1nc(SCC(=O)N2CCCc3ccccc32)[nH]c(=O)c1-c1ccccc1 | inactive: -1.19% | 
CCOC(=O)CNC(=O)c1ccc(-c2nn(C)c(=O)c3ccccc23)cc1 | inactive: 23.9% | 
CN(C)c1cc(NC(=O)CN2CCCC2)c2ccccc2n1 | inactive: 6.44% | 
CCOc1ccc(-n2c(=O)c3sccc3n(CC(=O)NCC3CCCO3)c2=O)cc1 (configuration not stated) |  | inconclusive [inhibitor, full curve, poor fit]
COc1ccc(Cl)cc1NC(=O)CSC1=Nc2ccccc2C2=NC(CC(=O)NC3CCCCC3)C(=O)N12 (configuration not stated) | inactive: 13.1% | 
CC/C(=N/NS(=O)(=O)c1ccc(Cl)cc1)c1ccc(O)cc1 |  | inconclusive [inhibitor, full curve, poor fit]
O=C(/C=C/c1ccccc1)NC(NC(=S)Nc1ccc(Cl)cc1Cl)C(Cl)(Cl)Cl (configuration not stated) |  | inconclusive [inhibitor, full curve, poor fit]
C=CCSC1=C(C#N)C(c2cccc(OC)c2)CC(=O)N1 (configuration not stated) |  | inconclusive [inhibitor, full curve, poor fit]
CN(C)CC(NC(=O)c1cccc(S(=O)(=O)Nc2ccc3c(c2)OCO3)c1)c1ccccc1 (configuration not stated) | inactive: -19.1% | 
COC(=O)c1ccc2c(=O)n(CC3CCCO3)c(SCC(=O)Nc3ccccc3OC)nc2c1 (configuration not stated) | inactive: -2.44% | 
O=C(CNS(=O)(=O)c1ccccc1)OCC(=O)c1ccc([N+](=O)[O-])cc1 |  | inconclusive [inhibitor, full curve, poor fit]
CCOc1ccc(CCNC(=O)c2cccc(N3CCCC3=O)c2)cc1OCC |  | inconclusive [inhibitor, full curve, poor fit]
COC(=O)c1cc(=O)nc2sc(-c3ccccc3)nn12 |  | inconclusive [inhibitor, full curve, poor fit]
Cc1ccc(NC(=O)Cn2cnc3c(cnn3C(C)(C)C)c2=O)cc1 |  | inconclusive [inhibitor, full curve, poor fit]
Cc1ccc(-c2cc(NC(=O)CSc3n[nH]c(N)n3)n(-c3ccccc3)n2)cc1 |  | inconclusive [inhibitor, full curve]
Cc1ccc(C2C3=C(NCCN=C3c3ccccc3)C(=O)N2c2ccccc2)cc1 (configuration not stated) |  | inconclusive [inhibitor, full curve]
CS(=O)(=O)c1oc(-c2ccc(F)cc2)nc1S(=O)(=O)c1ccc(Cl)cc1 | inactive: 10.7% | 
O=C(CSc1nc2c(sc3ccccc32)c(=O)n1CCCC(=O)NC1CCCC1)Nc1ccc(F)cc1 | inactive: 1.37% | 
CC(C)c1cc(NC(=O)C(C)(C)C)cc(C(C)C)c1O |  | inconclusive [inhibitor, full curve, poor fit]
